Laboratory results published in paper PMC6919601, “Identification of Plasmodium dipeptidyl aminopeptidase allosteric inhibitors by high throughput screening” (PLoS ONE, 2019).
About 230 (0.21%) of roughly 110,000 compounds showed an effect of 50% or more. The list shows a part of the results.

What follows are compounds tested against DPAP1 (Plasmodium falciparum, UniProt Q8IIJ9) (assay: primary screen, percent inhibition; read by cleavage of a fluorogenic dipeptide substrate; higher = more effect of the substance).
Design: species or system P. falciparum D10 trophozoite lysates; single well
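Note: 30 min substrate incubation versus DMSO and 10 µM JCP410 controls.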

DPAP1, sequence (Q8IIJ9 whole entry, looked up): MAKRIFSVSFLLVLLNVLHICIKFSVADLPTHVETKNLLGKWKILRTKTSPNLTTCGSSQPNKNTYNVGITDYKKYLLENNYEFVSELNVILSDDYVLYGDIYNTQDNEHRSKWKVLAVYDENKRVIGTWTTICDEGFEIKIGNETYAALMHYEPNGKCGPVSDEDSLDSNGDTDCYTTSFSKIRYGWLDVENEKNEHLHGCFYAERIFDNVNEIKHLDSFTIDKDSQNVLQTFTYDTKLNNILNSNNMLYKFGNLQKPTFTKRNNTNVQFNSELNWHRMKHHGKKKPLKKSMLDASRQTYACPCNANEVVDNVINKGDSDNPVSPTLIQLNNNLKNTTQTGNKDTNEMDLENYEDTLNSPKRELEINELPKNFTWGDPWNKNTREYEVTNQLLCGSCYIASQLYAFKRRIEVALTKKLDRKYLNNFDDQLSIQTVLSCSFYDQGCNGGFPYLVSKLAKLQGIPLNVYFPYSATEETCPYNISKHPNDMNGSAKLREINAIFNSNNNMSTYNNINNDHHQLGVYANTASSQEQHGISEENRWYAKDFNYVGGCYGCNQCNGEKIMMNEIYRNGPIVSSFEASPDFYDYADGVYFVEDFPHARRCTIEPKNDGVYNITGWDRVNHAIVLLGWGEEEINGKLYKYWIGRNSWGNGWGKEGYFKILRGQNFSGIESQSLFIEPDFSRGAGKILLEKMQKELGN

Compound | % Inhibition @ 10 uM
N=C(NOC(=O)C1CCCCC1)c1ccc(Br)cc1 | 3.66%
COCCCNc1cc(C)nc2ccc(C)cc12 | -1.26%
CSC1=NSC2=NC(=O)/C(=C\c3cc(Cl)c(O)c(Cl)c3)C(=N)N12 | -1.58%
CCOC(=O)c1c(C)c(C(=O)NCC(C)C)c(C)n1Cc1ccccc1 | 0.0579%
CCOc1cc2c(cc1OCC)C(c1cc(OC)c(OC)c(OC)c1)NCC2 (centres unmarked) | -6.43%
Oc1nc(O)c2c(n1)CCN(Cc1ccc(F)cc1)C2 | 3.61%
Cc1ccccc1COC(=O)c1ccc(-n2cccn2)cc1 | 4.58%
COc1ccc(Cn2ccc3nc(C)c(C(=O)NCC4CCCO4)cc3c2=O)cc1 (centres unmarked) | -4.75%
Cn1c(=O)[nH]c(=O)c2c1nc(N1CCCCCC1)n2CCc1ccccc1 | -13.3%
CC(=O)N1CCN(C2CCCC(C)C2)CC1 (centres unmarked) | -4.01%
O=c1cc2nc(-c3ccco3)nc(SCCOc3ccccc3Cl)n2[nH]1 | 4.32%
CC(C)c1ccc(-c2c(N(C)Cc3ccco3)c(=O)c2=O)cc1 | 4.1%
COc1cc(C=O)ccc1OCc1ccncc1 | 1.58%
O=C(NCc1nc2ccccc2[nH]1)c1nc(-c2ccc3c(c2)OCO3)no1 | 4.57%
O=C(NCC1CCCO1)c1nc(-c2ccc(C(F)(F)F)cc2)no1 (centres unmarked) | -2.28%
CN1C(=O)N(C)C2(O)c3ccccc3C(=O)C12O (centres unmarked) | -1.42%
COc1cc(OC)nc(NC(=O)CSc2nc3ccccc3o2)n1 | -3.49%
O=c1/c(=C/c2cccs2)sc2nnc(-c3ccccc3Cl)n12 | -5.01%
Cc1ccc(CSc2nc3ccccc3[nH]2)cc1 | 11.4%
COc1cccc(OCC(O)CN(CCO)Cc2ccccc2)c1 (centres unmarked) | 3.06%
Cc1[nH]c(-c2ccc(F)cc2)cc1C(=O)N1CC=C(c2ccccc2)CC1 | 6.06%
C=CCOc1nc(-c2ccccc2)cc(-c2ccc(OC)cc2)n1 | 5.04%

Compound | % Inhibition @ 10 uM
CC(C)Oc1ccc(CNC(=O)CCC(=O)N2Cc3ccccc3Oc3ncccc32)cc1 | 0.627%
C=CCNc1ncnc2c1c(-c1ccccc1)cn2-c1ccc(OC)cc1 | 2.56%
O=C(NC1CC1)c1cc(Sc2ccc(F)cc2F)nc2ccccc12 | -6.75%
Nc1cc(O)nc2ncnn12 | 3.38%
Cc1cc(C)n(CCc2nc3c4ccccc4nc(N4CCN(C5CCCCC5)CC4)n3n2)n1 | -4.21%
CCN1CCN(C(c2ccccn2)c2c(NC(=O)c3ccccc3)sc(C)c2C)CC1 (centres unmarked) | -1.61%
CC(C)(C)c1ccc(CNC(=O)c2ccccc2Br)cc1 | 0.0719%
CN(C)CCCNc1ncnc2sc3c(c12)CCCC3 | 6.54%
N#CCNC(=O)[C@H](Cc1cc(Cl)c(O)c(Cl)c1)NC(=O)c1ccc(F)c(F)c1 | 6.03%
COc1ccc(N2C(=O)C(Cl)=C(Nc3ccccc3OC)C2=O)cc1 | 1.03%
COc1cc(OC)cc(C(=O)Nc2nc(-c3nnn(-c4cc(OC)cc(OC)c4)c3C)ns2)c1 | 2.12%
O=C(CSc1nnnn1-c1ccccc1)c1ccc(O)cc1 | 1.27%
CCN(CC)c1ccc(NC(=O)C2CCCCC2C(=O)O)cc1 (centres unmarked) | 1.43%
COCCNC(=O)Cn1ncc2ccsc2c1=O | -2.92%
O=C(COc1ccc(Cl)cc1)Nc1ccc(S(=O)(=O)N2CCCC2)cc1 | 3.8%
CC(=O)OC1CSCC1NC(=O)c1ccccc1 (centres unmarked) | -3.52%
COC(=O)c1nnn(-c2cc(Cl)ccc2OC)c1C(=O)OC | 0.163%
COc1ccc(C(=O)Nc2sc(C)cc2C(=O)O)cc1 | -0.865%
Cc1[nH]c2ccccc2c1C(=O)CN1CCN(Cc2ccc3c(c2)OCO3)CC1 | -5.4%
C=C(C)[C@@H]1CC=C(CNc2cc(OC)cc(OC)c2)CC1 | 6.54%
Cc1cc(C(=O)N2CCN(Cc3ccc4c(c3)OCO4)CC2)on1 | 3.2%
Cc1ccc(NC2=C(Cl)C(=O)N(c3ccccc3)C2=O)cc1 | -1.06%

Compound | % Inhibition @ 10 uM
COc1cccc(C2=NS(=O)(=O)N(C)C(C(=O)Nc3cc(C)on3)=C2)c1 | 3.92%
COc1cccc(-c2ccc(C#N)c(SCC(=O)Nc3cccc(F)c3)n2)c1 | -2.45%
N#CCOc1ccccc1-c1c(Cl)nc(Cl)c(=O)n1-c1ccccc1 | -0.25%
COc1cccc(C2CC(C(F)(F)F)n3ncc(C(=O)N4CCc5ccccc5C4)c3N2)c1 (centres unmarked) | 1.72%
CN1C(C(=O)N2CCC3(CC2)OCCO3)=CC(c2ccc(F)cc2)=NS1(=O)=O | 0.655%
COC(=O)/C(=C/c1ccc2c(c1)OCO2)NC(=O)c1ccccc1Br | -5.51%
Cc1cc(=O)oc(C)c1C(=O)NCCN(C)Cc1ccccc1 | 2.79%
CCOC(=O)N1CCN(C(=O)c2cc(-c3ccc(CC)cc3)[nH]n2)CC1 | 2.37%
O=C(Nc1cccnc1)c1ccc(COCC(F)(F)F)cc1 | -1.33%
Cc1nnc2n1N=C(c1ccc(-c3cc(Cl)cc(Cl)c3)o1)CS2 | 0.0289%
FC(F)(F)c1cccc(CN2CCN(Cc3ccccc3)CC2)c1 | -3.56%
O=C(Cn1ncc2c(Cl)cccc21)N1CCc2ccccc2C1 | 3.84%
CN1CCN(S(=O)(=O)c2ccc(Nc3cccc(C(F)(F)F)c3)nc2)CC1 | -3.56%
CCOc1ccc(CSc2nnc(-c3cccnc3)n2-c2ccccc2)cc1 | 3.27%
CC[C@H](NC(=O)[C@H](Cn1cccn1)NC(=O)c1ccc(-c2ccccc2Cl)cc1)C(=O)c1nc2ccccc2o1 | -8.81%
COc1ccc(S(=O)(=O)Nc2ccccc2C(C)C)cc1OC | -5.13%
COC(=O)C1=C(NC(=O)c2cccc(C)c2)CCS1 | -3.69%
CCC1CCCCN1CCNC(=O)C1CCN(S(=O)(=O)c2cccc3nsnc23)CC1 (centres unmarked) | -9.18%
CCCC(=O)Nc1cccc(C(=O)NCC(C)C)c1 | -2.94%
CC1CCc2c(sc(NC(=O)C(C)Oc3cccc(Cl)c3)c2C(N)=O)C1 (centres unmarked) | 2.45%
CCOC(=O)N1CCN(C(=O)C2CC(=O)N(Cc3ccc(OC)cc3)C2)CC1 (centres unmarked) | -5.43%
